Data: the RNAGym collection of RNA variant scans (doi:10.1073/pnas.2313332121)
Variants at the floor of the assay are shown more often than the library holds them.

B1: TPR 5TU (parent)
chain: GGAUCUUCUCGAUCUAACAAAAAAGACAAAUCUGCCACAAAGCUUGAGAGCAUCUUCGGAUGCAGAGGCGGCAGCCUUCGGUGGCGCGAUAGCGCCAACGUUCUCAACUAUGACACGCAAAACGCGUGCUCCGUUGAAUGGAGUUUAUCAUG

Variants of: B1
Assay: polymerase ribozyme fitness, log enrichment relative to wild type (log ratio); higher = more active; in vitro selection for triplet polymerase activity
In short: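 Mutant libraries of each subunit of a heterodimeric triplet polymerase ribozyme were built by PCR and transcribed. Each library went through one round of in vitro selection in triplicate: annealing with biotinylated primer, partner subunit and triplets, frozen incubation at −7 °C, gel excision of extended constructs, streptavidin-bead capture and RT-PCR. Input and output libraries were Illumina-sequenced; only genotypes with ≥10 input reads and ≥1 read per output were kept. Fitness is log2(genotype enrichment/wild-type enrichment), using inverse-variance-weighted replicate averages.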

Polymerase ribozyme fitness (log ratio), -3.18:
GGAUCUUCUCGAUCGAACAAAAAAGACAAAUCUGCCACAGAGCUUGAGAGCAUCUUCGGAUGCAGAGGCGGCAGCCUUCGGUGGCGCGAUAGCGCUGACGUUCUCAACUAUGACACGCAAAACGCGUGCUCCGUUGAAUGAAGUUUAUCAUG [U15G A40G C96U A97G G141A]

Polymerase ribozyme fitness (log ratio), ≤ -4.2:
GGAUCUUCUCGAUCGAACAAAAAAGACAAAUCUGCCCCAAAGCUUGAGAGCAGCUUCGCAUGCAGAGGCGGCAGCAUUCGGUGGCGCGAUGGCGCCUACGUUCUCAACUAUGACACGCAAAACGCGUGCUCCGUUGAAUGGAGUAUAUCAUG [U15G A37C U53G G59C C76A A91G A97U U145A]
GGAUCUUCUCGAUCGAACAAAAAAGACAAAUCUGCCACACAGCUUGGGAGUAUCUUGGGAUGCAGAGGCGGCAGCCUUCGGUGGCGCGAUGGCGCGAACGUUCUCAACUAUGACACGCAAAACGCGUGCUCCGUUGAAUGGAGUUUAUCAUG [U15G A40C A47G C51U C57G A91G C96G]
GGAUCUUCUCGAUCGAACAAAAAAGACAAAUCUGCCACAAAGCUUGCGAGCAUCUUCGGAUGCAGAGGCGGCAGCCUUCGGUGGCGCGCUAGUGCCAACGUUCUCAACUAUGACACGCAAAACGCGAGCUCCGUUUAAUGGAGUUUAUCAUG [U15G A47C A89C C93U U127A G136U]
GGAUCUUCUCGAUCGAACAAAAAAGACAAAUCUGCCACAAAGCUUGGGAGCAUCUACGGAUGCAGAGCCGGCAGCCUUCAGUGGCGCCAUAGCGCCAACGUUCUCAAUUAUGACACGCGAACCGCGUGCUCCGUUGAAUGGAGUUUAUCAUG [U15G A47G U56A G68C G80A G88C C108U A119G A122C]
GGAUCUUCUCGAUCGAACAAAAAAGACAAAUCUGCCACAAAGCUUGGGAGCAUCUUCGGAUGCAGAGGCGGCAGCCUUCGGUGGCGCGAUAGCGCCAACGUUCUCAACUACGACACGCAAAACGCGUGCUCCGUUGAAUGGAGUUUAUCAUG [U15G A47G U111C]
GGAUCUUCUCGAUCGAACAAAAAAGACAAAUCUGCCACAAAGCUUGAGAGCAUCUUCGGAUGCAGGGGCGGCAGCCUUCGGUGGCGCGAUAGCGCUAACGUUCUCAACUAUGACACGCAAAACGCGUGCUCCGUUGAAUGGAGUUUAUCAUG [U15G A66G C96U]
GGAUCUUCUCGAUCGAACAAAAAAGAGAAAUCUGCCACAAAGCUUGAAAGCAUCUUCGGAAGCAGAGGCGGCAGCCUUCGGUGGCGCGAUAGUGCCAACGUUCUCAACUAUGACACGCAAAACGCGUGCUCCGUUGAAUGGAGUUUAUCAUG [U15G C27G G48A U61A C93U]
GGAUCUUCUCGAUCGAACAAAAAAGAUAAAUCUGCCACAAAGCGUGAGAGCCUCUUCGGAUGCAGAGGCGGCAGCCUUCGGUGGCGCGAUAGUGCCAACGUUCUCAACUAUGAUACGCAAAACGCGUGCUCCGUUGAUUGGAGUUUAUCAUG [U15G C27U U44G A52C C93U C114U A138U]
GGAUCUUCUCGAUCGAACAAAAAAGACAAAUCUGCCAAAAAGCUUGAGAGCAUCUUCGGAUGCAGAGGCGGCAGCCUUCGGUGGCGCUAUAGCGCCAACGUUCUCAACUAUGACAUGCAAAACGCGUGCUCCGUUAAAUGCAGUAUAUCAUG [U15G C38A G88U C116U G136A G141C U145A]
GGAUCUUCUCGAUCGAACAAAAAAGACAAAUCUGCCACAAAGCUUGAGAGCAUUUUCGGUUGCAGAGGCGGCAGGCUUCGGUGGCGCGAUAGCGCCAACGUUCUCAACUAUGGCACGCAAAACGCGUGCUCCGUUGAAUGGAGUUUAUCAUG [U15G C54U A60U C75G A113G]
GGAUCUUCUCGAUCGAACAAAAAAGACAAAUCUGCCACAAAGCUUGAGAGCAUCUUAGGAUGCAGAGGCGGCAGCCUUAGGUGGAGCGAUAGCGCCAACGUUCUCAACUAUGACAGGCAAAACGCGUGCUCCGUUGAAUGGAGUUUAUCAUG [U15G C57A C79A C85A C116G]
GGAUCUUCUCGAUCGAACAAAAAAGACAAAUCUGCCACAAAGCUUGAGAGCAUCUUCGGAUGCAGAGGUGGCAGCCUUCGGUGGCGCGAUAGAGCAAACGUUCUCAACUAUGACACGCAAAACGCGUGCUCCGUUGAAUGGAUUUUAUCAGG [U15G C69U C93A C96A G143U U151G]
GGAUCUUCUCGAUCGAACAAAAAAGACAAAUCUGCCACAAAGCUUGAGAGCAUCUUCGGAUGCAGAGGCGGUAGCCUUCGGUGGCGAGAUAGCGCCAACGUUCUCAACUAUGACACGCAAAACGCGUGCUCCGAUGAAUGGAGUUUAUCCGG [U15G C72U C87A U134A A150C U151G]
GGAUCUUCUCGAUCGAACAAAAAAGACAAAUCUGCCACAAAGCUUGAGAGCAUCUUCGGAUGCAGAGGCGGCAGCCUUCGGUGGAGCGAUAGCGCCAACGUUCUCACCUAUGACACGCAAAACGCGUGCUCCGUUGAAUGUAGUUUAUCAUG [U15G C85A A107C G141U]
GGAUCUUCUCGAUCGAACAAAAAAGACAAAUCUGCCACAAAGCUUGAGAGCAUCUUCGGAUGCAGAGGCGGCAGCCUUCGGUGGCGCGAUAGAGCCAACGUUCUCAACCAUGACACGCAAAACGCGUGCUCCGUUGAAUGGAGUUUAUCAUG [U15G C93A U109C]

Polymerase ribozyme fitness (log ratio), -4.01:
GGAUCUUCUCGAUCGAACAAAAAAGACAAAUCUGCCACGAAGCUUGAGAGCAACUUCGGAUGCAGAGGCGGCAGCCUUCGGUGGCGCGAUAGCGCCAACGUUCUCAACUAUGACACGCAAAACGCGUGCUCCGUUGAAUGGAGUUUAUCAUG [U15G A39G U53A]

Polymerase ribozyme fitness (log ratio), -3.59:
GGAUCUUCUCGAUCGAACAAAAAAGACAAAUCUGCCACAAAGCUUGAGAGCAUCUUCGGAUGCAGAGGCGGCAGCCUUCGGUGGCGCGAUAGCGCCAACGUUCUCAACUGUGACACGCAAAACGCGUGCUCCGUUGAAUGGAGUUUAUCAUG [U15G A110G]

Polymerase ribozyme fitness (log ratio), -0.888:
GGAUCUUCUCGAUCGAACAAAAAAGACAAAUCUGCCACAAAGCUUGAGAGCAUCUUCGGAUGCAGAGGCGGCAGCCUUCGGUGGCGCGCUAGCGCCAACGUUCUCAACUAUGACACGCUAAACGCGUGCUCCGUUGAAUGGAGUUUAUCAUG [U15G A89C A119U]
